# Source: a collection of fitness landscapes (doi:10.1016/j.celrep.2020.107928)
# The full ranking holds about 81,000 sequences; the median of “one-hybrid fitness for binding NBS DNA” is about -0.1, and the highest 2% start at about 0.36. The list shows a part of the results.
# B1: Caulobacter ParB omega fusion; a variant is named by its letters at X, in order, B8GW30 (parent)
# chain: MESVVVGEPGMSEGRRGLGRGLSALLGEVDAAPAQAPGEQLGGSREAPIEILQRNPDQPRRTFREEDLEDLSNSIREKGVLQPILVRPSPDTAGEYQIVAGERAWRAAQRAGLKTVPIMVRELDDLAVLEIGIIENVQRADLNVLEEALSYKVLMEKFERTQENIAQTIGKSXSHVANXMRLLXLPDEVQSYLVSGELTAXHARAIAAAADPVALAKQIIEGGLSVRETEALARKAPNLSAGKSKGGRPPRVKDTDTQALESDLSSVLGLDVSIDHRGSTGTLTITYATLEQLDDLCNRLTRGI
# Variants of: B1
# Assay: one-hybrid fitness for binding NBS DNA (the Noc-binding site; scaled: cognate 1, non-cognate 0); higher = stronger binding
# Details: with NBS DNA site
# Outline: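 Selection: bacterial one-hybrid in E. coli USO, HIS3 reporter with the site 19 bp from the promoter, 48 hours at 37°C on M9-minus-histidine plus 0.1 mM IPTG and 5 mM 3-AT. Libraries were Caulobacter ParB with four randomised specificity codons, sequenced on Illumina before and after selection. Fitness is the rescaled log change in variant-to-wild-type read ratio, anchored to the cognate and non-cognate sites.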
row,Variant,one-hybrid fitness for binding NBS DNA
1,RRIL,≤ 0.2
2,WMDS,≤ 0.2
3,WHVG,≤ 0.2
4,VFSM,≤ 0.2
5,PAPA,≤ 0.2
6,PGTS,≤ 0.2
7,ESGG,≤ 0.2
8,RYDG,≤ 0.2
9,HKKA,≤ 0.2
10,DTLS,≤ 0.2
11,RHWI,≤ 0.2
12,FGCS,≤ 0.2
13,WEPV,≤ 0.2
14,QEDV,≤ 0.2
15,QAQV,≤ 0.2
16,VCFS,≤ 0.2
17,WNSC,≤ 0.2
18,HCTR,≤ 0.2
19,GTRA,≤ 0.2
20,CARK,≤ 0.2
21,VHVR,≤ 0.2
22,NLKT,≤ 0.2
23,HRHE,≤ 0.2
24,PTYG,≤ 0.2

row,Variant,one-hybrid fitness for binding NBS DNA
1,PAWK,≤ 0.2
2,SDVC,≤ 0.2
3,SSGC,≤ 0.2
4,RYHI,≤ 0.2
5,EPTM,≤ 0.2
6,RICY,≤ 0.2
7,SMLY,≤ 0.2
8,GIHC,≤ 0.2
9,VKRW,≤ 0.2
10,YEKR,≤ 0.2
11,TGVI,≤ 0.2
12,RSKS,0.567
13,RYHD,≤ 0.2
14,NREC,≤ 0.2
15,PSVY,≤ 0.2
16,FHAR,≤ 0.2
17,EARK,≤ 0.2
18,PIHP,≤ 0.2
19,GMKI,≤ 0.2
20,MFWS,≤ 0.2
21,NCAW,≤ 0.2
22,SFHR,≤ 0.2
23,YTHE,≤ 0.2
24,RPKF,≤ 0.2

row,Variant,one-hybrid fitness for binding NBS DNA
1,HLYV,≤ 0.2
2,GFWM,≤ 0.2
3,PPFR,≤ 0.2
4,ANHV,≤ 0.2
5,GLAM,≤ 0.2
6,LYAW,≤ 0.2
7,RAHQ,≤ 0.2
8,GHPN,≤ 0.2
9,MGLS,≤ 0.2
10,LWVR,≤ 0.2
11,TAYT,≤ 0.2
12,AVGL,≤ 0.2
13,APNG,≤ 0.2
14,HFQS,≤ 0.2
15,FQSA,≤ 0.2
16,GGAT,≤ 0.2
17,NLAP,≤ 0.2
18,RGIQ,≤ 0.2
19,PFMM,≤ 0.2
20,WQRY,≤ 0.2
21,TELG,≤ 0.2
22,WPNH,≤ 0.2
23,PHDM,≤ 0.2
24,QEHL,≤ 0.2

row,Variant,one-hybrid fitness for binding NBS DNA
1,HRQM,≤ 0.2
2,SYDV,≤ 0.2
3,KLQS,≤ 0.2
4,NVCC,≤ 0.2
5,RYEN,≤ 0.2
6,MAPW,≤ 0.2
7,DETG,≤ 0.2
8,RQFA,≤ 0.2
9,STRS,≤ 0.2
10,HIHC,≤ 0.2
11,FSSG,≤ 0.2
12,MSTM,≤ 0.2
13,GKRV,≤ 0.2
14,HMPG,≤ 0.2
15,TMKW,≤ 0.2
16,HVSR,≤ 0.2
17,EYTG,≤ 0.2
18,HRQY,≤ 0.2
19,HISE,≤ 0.2
20,NYWT,≤ 0.2
21,NTTR,≤ 0.2
22,TAGK,≤ 0.2
23,CPIT,≤ 0.2
24,AVRM,≤ 0.2

row,Variant,one-hybrid fitness for binding NBS DNA
1,AIAS,≤ 0.2
2,CNGR,≤ 0.2
3,EHDS,≤ 0.2
4,VTNM,≤ 0.2
5,IRMF,≤ 0.2
6,QRDA,0.394
7,NLES,≤ 0.2
8,TSLP,≤ 0.2
9,ADNR,≤ 0.2
10,RPYE,≤ 0.2
11,VLAT,≤ 0.2
12,RQLH,≤ 0.2
13,EQNG,≤ 0.2
14,FPPW,≤ 0.2
15,HPRM,≤ 0.2
16,MPRD,≤ 0.2
17,DHVC,≤ 0.2
18,RWKM,≤ 0.2
19,SGYD,≤ 0.2
20,LILY,≤ 0.2
21,WNLA,≤ 0.2
22,RQSA,≤ 0.2
23,QQCM,≤ 0.2
24,LHNF,≤ 0.2

row,Variant,one-hybrid fitness for binding NBS DNA
1,VISS,≤ 0.2
2,SSGN,≤ 0.2
3,AIRI,≤ 0.2
4,EALQ,≤ 0.2
5,LFNT,≤ 0.2
6,LHTV,≤ 0.2
7,ALTG,≤ 0.2
8,KMDY,≤ 0.2
9,TCPL,≤ 0.2
10,PRKV,≤ 0.2
11,SKAD,≤ 0.2
12,NLLD,≤ 0.2
13,PCNY,≤ 0.2
14,NGWG,≤ 0.2
15,TRPR,≤ 0.2
16,LLNM,≤ 0.2
17,NTPI,≤ 0.2
18,KEGT,≤ 0.2
19,HQMF,≤ 0.2
20,DQDS,≤ 0.2
21,STRY,≤ 0.2
22,SNTS,≤ 0.2
23,NSDV,≤ 0.2
24,KRMK,≤ 0.2

row,Variant,one-hybrid fitness for binding NBS DNA
1,PQLE,≤ 0.2
2,TCIG,≤ 0.2
3,SYRY,≤ 0.2
4,SRGP,≤ 0.2
5,RMCR,0.433
6,GPIQ,≤ 0.2
7,GQGR,≤ 0.2
8,SEKS,≤ 0.2
9,INTS,≤ 0.2
10,PVTD,≤ 0.2
11,KFPR,≤ 0.2
12,TRCN,≤ 0.2
13,RWIR,≤ 0.2
14,AMSA,≤ 0.2
15,VKAP,0.214
16,TERW,≤ 0.2
17,AECS,≤ 0.2
18,RAHN,≤ 0.2
19,GVHL,≤ 0.2
20,MNLG,≤ 0.2
21,APLY,≤ 0.2
22,YRST,≤ 0.2
23,IMQT,≤ 0.2
24,QGCG,≤ 0.2

row,Variant,one-hybrid fitness for binding NBS DNA
1,RDFS,≤ 0.2
2,GTFA,≤ 0.2
3,KQLI,≤ 0.2
4,EDNK,≤ 0.2
5,ARTT,≤ 0.2
6,QMKM,0.416
7,DPVD,≤ 0.2
8,LSEF,≤ 0.2
9,HSPP,≤ 0.2
10,ETPR,≤ 0.2
11,YGYS,≤ 0.2
12,RYVD,≤ 0.2
13,GPAN,≤ 0.2
14,QADN,≤ 0.2
15,TFIT,≤ 0.2
16,TCFS,≤ 0.2
17,HTGI,≤ 0.2
18,QFMY,≤ 0.2
19,LMSE,≤ 0.2
20,SHPV,≤ 0.2
21,FYQC,≤ 0.2
22,ENMG,≤ 0.2
23,TSRD,≤ 0.2
24,ATAY,≤ 0.2

row,Variant,one-hybrid fitness for binding NBS DNA
1,PKYL,≤ 0.2
2,GASM,≤ 0.2
3,QMKP,0.277
4,PGYV,≤ 0.2
5,QVPQ,≤ 0.2
6,MQKA,≤ 0.2
7,RKNS,0.606
8,FRAL,≤ 0.2
9,PTCL,≤ 0.2
10,LWLR,≤ 0.2
11,RMMT,0.302
12,WLKA,≤ 0.2
13,SMIY,≤ 0.2
14,KDKR,≤ 0.2
15,QMFL,≤ 0.2
16,PAHC,≤ 0.2
17,VYSF,≤ 0.2
18,SDPT,≤ 0.2
19,AQYC,≤ 0.2
20,LETC,≤ 0.2
21,NSPM,≤ 0.2
22,HVKH,≤ 0.2
23,DQLH,≤ 0.2
24,SCSL,≤ 0.2

row,Variant,one-hybrid fitness for binding NBS DNA
1,WRWC,≤ 0.2
2,WWLP,≤ 0.2
3,RNNP,≤ 0.2
4,QVGK,≤ 0.2
5,YIYT,≤ 0.2
6,TLVE,≤ 0.2
7,RYID,≤ 0.2
8,HYYC,≤ 0.2
9,VWLN,≤ 0.2
10,CEHV,≤ 0.2
11,THNT,≤ 0.2
12,IQMS,≤ 0.2
13,PIHE,≤ 0.2
14,HTLV,≤ 0.2
15,QKST,0.526
16,RTHV,≤ 0.2
17,TYQF,≤ 0.2
18,GAMR,≤ 0.2
19,LQNP,≤ 0.2
20,GSPG,≤ 0.2
21,PDLI,≤ 0.2
22,TRYN,≤ 0.2
23,SSND,≤ 0.2
24,GHYV,≤ 0.2

row,Variant,one-hybrid fitness for binding NBS DNA
1,ASAI,≤ 0.2
2,TGDC,≤ 0.2
3,WAMA,≤ 0.2
4,HDSS,≤ 0.2
5,PRTF,≤ 0.2
6,QCTA,0.326
7,RKRR,0.736
8,HNQG,≤ 0.2
9,DLES,≤ 0.2
10,KLRW,≤ 0.2
11,LPVL,≤ 0.2
12,AGKK,≤ 0.2
13,LHTN,≤ 0.2
14,KPTL,≤ 0.2
15,HAVL,≤ 0.2
16,MNER,≤ 0.2
17,HTCW,≤ 0.2
18,RTCS,0.467
19,TWMI,≤ 0.2
20,RSTM,≤ 0.2
21,ADRR,≤ 0.2
22,TLIC,≤ 0.2
23,ARGS,≤ 0.2
24,RVFV,≤ 0.2

row,Variant,one-hybrid fitness for binding NBS DNA
1,TTEL,≤ 0.2
2,VDSD,≤ 0.2
3,INTT,≤ 0.2
4,MNTF,≤ 0.2
5,LDGA,≤ 0.2
6,PTYS,≤ 0.2
7,HERR,≤ 0.2
8,VRWL,≤ 0.2
9,FGGG,≤ 0.2
10,WQAC,≤ 0.2
11,YFVS,≤ 0.2
12,WKTC,≤ 0.2
13,SYWL,≤ 0.2
14,WSQS,≤ 0.2
15,CYQC,≤ 0.2
16,AAGY,≤ 0.2
17,MCVR,≤ 0.2
18,KTPK,≤ 0.2
19,REAY,≤ 0.2
20,ARMR,≤ 0.2
21,GTPD,≤ 0.2
22,VLCV,≤ 0.2
23,VYTF,≤ 0.2
24,ACAS,≤ 0.2

row,Variant,one-hybrid fitness for binding NBS DNA
1,RLTE,≤ 0.2
2,FWRE,≤ 0.2
3,PNKI,≤ 0.2
4,SLKP,≤ 0.2
5,LLHP,≤ 0.2
6,RRID,≤ 0.2
7,NRCS,≤ 0.2
8,TSEV,≤ 0.2
9,YPLT,≤ 0.2
10,CGLT,≤ 0.2
11,CKYS,≤ 0.2
12,FSST,≤ 0.2
13,HGVR,≤ 0.2
14,MMES,≤ 0.2
15,DKST,≤ 0.2
16,RNNF,≤ 0.2
17,HFGG,≤ 0.2
18,MVQS,≤ 0.2
